Laboratory results reported in a collection of fitness landscapes (doi:10.1126/science.1257360).
The list shows a part of the results.

B1: PhoQ; a variant is named by its letters at X, in order, P23837 (parent)
chain: MKKLLRLFFPLSLRVRFLLATAAVVLVLSLAYGMVALIGYSVSFDKTTFRLLRGESNLFYTLAKWENNKLHVELPENIDKQSPTMTLIYDENGQLLWAQRDVPWLMKMIQPDWLKSNGFHEIEADVNDTSLLLSGDHSIQQQLQEVREDDDDAEMTHSVAVNVYPATSRMPKLTIVVVDTIPVELKSSYMVWSWFIYVLSANLLLVIPLLWVAAWWSLRPIEALAKEVRELEEHNRELLNPATTRELTSLVRNLNRLLKSERERYDKYRTTLTDLTHSLKTPLXXLQXXLRSLRSEKMSVSDAEPVMLEQISRISQQIGYYLHRASMRGGTLLSRELHPVAPLLDNLTSALNKVYQRKGVNISLDISPEISFVGEQNDFVEVMGNVLDNACKYCLEFVEISARQTDEHLYIVVEDDGPGIPLSKREVIFDRGQRVDTLRPGQGVGLAVAREITEQYEGKIVAGESMLGGARMEVIFGRQHSAPKDE

Variants of: B1
Test: enrichment ratio after two sorts for PhoP signalling (ratio (wild type AVST 3.29)); higher = more functional
Settings: with PhoP (E. coli)

Variant | enrichment ratio
PMHV | ≤ 0.25
LSKE | ≤ 0.25
FYSM | ≤ 0.25
VEIS | 1.86
KTPY | ≤ 0.25
YNMT | ≤ 0.25
QDDA | ≤ 0.25
HCTY | ≤ 0.25
TVNY | ≤ 0.25
HDLA | ≤ 0.25
VVWT | ≤ 0.25
LCQN | ≤ 0.25
TKTH | ≤ 0.25
YQSN | ≤ 0.25
YDDI | ≤ 0.25
CSFF | 4.74
VACG | ≤ 0.25
RCTL | ≤ 0.25
RAHA | ≤ 0.25
AIYQ | ≤ 0.25
LNSF | ≤ 0.25
SPCQ | ≤ 0.25
CLLS | ≤ 0.25
GNST | 15.1

Variant | enrichment ratio
DQVN | ≤ 0.25
GYLN | ≤ 0.25
VVVT | ≤ 0.25
HCHW | ≤ 0.25
NLVI | ≤ 0.25
YMWG | ≤ 0.25
WTFI | ≤ 0.25
HISK | ≤ 0.25
MRAL | ≤ 0.25
FLFH | ≤ 0.25
RPKQ | ≤ 0.25
FPNL | ≤ 0.25
AVMM | 52.7
NTGG | ≤ 0.25
QRFD | ≤ 0.25
IRAD | ≤ 0.25
PAVK | ≤ 0.25
HDDY | ≤ 0.25
MLLI | 5.99
GRQD | ≤ 0.25
ECQD | ≤ 0.25
QGYN | ≤ 0.25
HMNL | ≤ 0.25
SICI | 21

Variant | enrichment ratio
NYGN | ≤ 0.25
QVMM | ≤ 0.25
LYLM | ≤ 0.25
YRDW | ≤ 0.25
IRPS | ≤ 0.25
MHHL | ≤ 0.25
RGAW | ≤ 0.25
ISAF | ≤ 0.25
QEPP | ≤ 0.25
LTCC | ≤ 0.25
QTPS | ≤ 0.25
AIKR | ≤ 0.25
AHNK | ≤ 0.25
AQLW | 5.89
GTRC | ≤ 0.25
TPPM | ≤ 0.25
PIFW | 1.39
QIFE | ≤ 0.25
AWPN | ≤ 0.25
TPQM | ≤ 0.25
AESG | 25.4
EDPT | ≤ 0.25
IPDK | ≤ 0.25
KPGG | ≤ 0.25

Variant | enrichment ratio
FPMM | ≤ 0.25
GKWS | ≤ 0.25
RFRH | ≤ 0.25
DDGI | ≤ 0.25
GQEH | ≤ 0.25
PPKC | ≤ 0.25
IAGY | ≤ 0.25
KFVV | ≤ 0.25
FDSD | ≤ 0.25
GKDL | ≤ 0.25
DYTS | ≤ 0.25
TERE | ≤ 0.25
CHWL | ≤ 0.25
YTMY | ≤ 0.25
EMIV | ≤ 0.25
RLGY | ≤ 0.25
VQTG | ≤ 0.25
PKAD | ≤ 0.25
NSGM | ≤ 0.25
VWAF | ≤ 0.25
RRSD | ≤ 0.25
PSQH | ≤ 0.25
LDRM | 1.21
WCIP | ≤ 0.25

Variant | enrichment ratio
SWFT | ≤ 0.25
HYHH | ≤ 0.25
RYMH | ≤ 0.25
TLPL | ≤ 0.25
FSFH | ≤ 0.25
RVHI | ≤ 0.25
IEVT | 3.84
QLMM | ≤ 0.25
DTAQ | ≤ 0.25
KHWQ | ≤ 0.25
FNMF | ≤ 0.25
ESPC | ≤ 0.25
RIAV | ≤ 0.25
QDNV | ≤ 0.25
FIMK | ≤ 0.25
ERLC | ≤ 0.25
RNPY | ≤ 0.25
VAQV | ≤ 0.25
MIMY | ≤ 0.25
GFTF | ≤ 0.25
IEYI | ≤ 0.25
DRPV | ≤ 0.25
PVLS | ≤ 0.25
AGTW | ≤ 0.25

Variant | enrichment ratio
ASEF | ≤ 0.25
TIWY | ≤ 0.25
FNTW | ≤ 0.25
VISS | ≤ 0.25
KYAF | ≤ 0.25
TWFD | ≤ 0.25
LKMG | ≤ 0.25
QCPL | ≤ 0.25
IFKQ | ≤ 0.25
QRMS | ≤ 0.25
KPWN | ≤ 0.25
NDRV | ≤ 0.25
MGAE | 11
RHNI | ≤ 0.25
ACPV | 6.8
IRDL | ≤ 0.25
EFWP | ≤ 0.25
SAAE | ≤ 0.25
YGIA | ≤ 0.25
WMQR | ≤ 0.25
CMVY | ≤ 0.25
FACF | ≤ 0.25
GMSH | ≤ 0.25
QDRV | ≤ 0.25

Variant | enrichment ratio
NQPP | ≤ 0.25
PMSR | ≤ 0.25
NTTY | 1.06
IPKV | ≤ 0.25
DHVA | ≤ 0.25
EGLH | ≤ 0.25
FVWQ | ≤ 0.25
YRRA | ≤ 0.25
VCYD | ≤ 0.25
DNCM | ≤ 0.25
KGEN | ≤ 0.25
DANE | ≤ 0.25
IMPW | ≤ 0.25
HKNM | ≤ 0.25
MQHE | ≤ 0.25
LKNL | ≤ 0.25
HTPW | ≤ 0.25
WNNP | ≤ 0.25
KCSN | ≤ 0.25
DTWK | ≤ 0.25
SKEE | ≤ 0.25
WSPI | ≤ 0.25
KGHC | ≤ 0.25
QLHW | ≤ 0.25

Variant | enrichment ratio
AGFG | ≤ 0.25
KKCH | ≤ 0.25
VKQQ | ≤ 0.25
GWSG | ≤ 0.25
DCLR | ≤ 0.25
WTVS | ≤ 0.25
FSVL | 11.7
INVV | ≤ 0.25
VMSV | ≤ 0.25
EDNP | ≤ 0.25
DWCP | ≤ 0.25
DVCY | ≤ 0.25
YCIN | ≤ 0.25
MHSP | ≤ 0.25
FAFN | ≤ 0.25
HVRS | ≤ 0.25
ASQY | ≤ 0.25
QYTH | ≤ 0.25
RPKN | ≤ 0.25
GWFD | ≤ 0.25
SKKW | ≤ 0.25
PSNE | ≤ 0.25
PLGE | ≤ 0.25
ADTA | ≤ 0.25

Variant | enrichment ratio
LACM | ≤ 0.25
SAFQ | 2.84
HDCS | ≤ 0.25
HQIA | ≤ 0.25
RDYK | ≤ 0.25
FHYS | ≤ 0.25
VQSL | ≤ 0.25
KGCA | ≤ 0.25
AYGF | ≤ 0.25
SGTV | 9.21
QKPG | ≤ 0.25
ARDP | ≤ 0.25
FFVC | ≤ 0.25
EMAV | ≤ 0.25
MTLF | 9.13
NYSS | ≤ 0.25
YSTK | ≤ 0.25
PCGS | ≤ 0.25
IMPP | ≤ 0.25
KLTG | ≤ 0.25
FEYH | ≤ 0.25
ETMC | ≤ 0.25
LSWW | ≤ 0.25
DLQF | ≤ 0.25

Variant | enrichment ratio
RSLH | ≤ 0.25
TVYC | ≤ 0.25
PTST | ≤ 0.25
PLHH | ≤ 0.25
MQLP | ≤ 0.25
KNWC | ≤ 0.25
RVHS | ≤ 0.25
ASME | 10.8
AGKN | ≤ 0.25
SGVI | 9.24
YLKK | ≤ 0.25
LRMM | ≤ 0.25
FARR | ≤ 0.25
GTAG | ≤ 0.25
TEAG | 19.7
PCNY | ≤ 0.25
KDSV | ≤ 0.25
NFSV | 0.634
RPIP | ≤ 0.25
ARWC | ≤ 0.25
FMPG | ≤ 0.25
GDYH | ≤ 0.25
VQPH | ≤ 0.25
VGQN | ≤ 0.25

Variant | enrichment ratio
HMRG | ≤ 0.25
HRHQ | ≤ 0.25
REDP | ≤ 0.25
GPVQ | ≤ 0.25
TDIW | ≤ 0.25
GFRW | ≤ 0.25
WSSS | ≤ 0.25
AEPD | ≤ 0.25
QRHW | ≤ 0.25
MTMR | ≤ 0.25
YWMV | ≤ 0.25
AFCR | ≤ 0.25
GMIF | ≤ 0.25
EGIN | ≤ 0.25
RGGN | ≤ 0.25
QRER | ≤ 0.25
LTIW | ≤ 0.25
EHHC | ≤ 0.25
VAGK | ≤ 0.25
SWSW | ≤ 0.25
KYSQ | ≤ 0.25
QCAK | ≤ 0.25
WDNL | ≤ 0.25
STRV | ≤ 0.25

Variant | enrichment ratio
KYWR | ≤ 0.25
GHSP | ≤ 0.25
TWRH | ≤ 0.25
PICH | ≤ 0.25
HETA | ≤ 0.25
YCKP | ≤ 0.25
PVRG | ≤ 0.25
NHHH | ≤ 0.25
GSTA | 0.871
NWFW | ≤ 0.25
YHEY | ≤ 0.25
QENL | ≤ 0.25
VHNS | ≤ 0.25
RDWH | ≤ 0.25
DYNN | ≤ 0.25
WIDF | ≤ 0.25
VFEM | ≤ 0.25
HKYC | ≤ 0.25
NDNM | ≤ 0.25
VNQI | ≤ 0.25
MQSS | ≤ 0.25
SWIC | ≤ 0.25
AHIL | ≤ 0.25
IAGV | ≤ 0.25

Variant | enrichment ratio
HKIN | ≤ 0.25
VLQD | ≤ 0.25
HWDF | ≤ 0.25
VMFT | ≤ 0.25
SRST | ≤ 0.25
RACE | ≤ 0.25
YIWW | ≤ 0.25
AFAQ | ≤ 0.25
GYVF | ≤ 0.25
SFWI | ≤ 0.25
PAIG | ≤ 0.25
RQHQ | ≤ 0.25
MHVR | ≤ 0.25
KDQM | ≤ 0.25
FTLS | 6.25
VYIR | ≤ 0.25
PGGQ | ≤ 0.25
QMAS | ≤ 0.25
